Out of some 280,000 compounds screened, about 100 (0.036%) were called active. This list was built around the results that the source calls inconclusive (neither active nor inactive); the mix of calls is not that of the screen. Calls follow the shape of the dose curve; as a rule, active = well fitted inhibition curve with a large enough effect in the signal ratio, with a control signal flat (not every such curve was filed as active); inconclusive = small, poorly fitted or top-dose-only effect, or effect the other way, or a change in a side signal; inactive = no such curve, though single readings can be large or run the other way; the % refers to the signal ratio. Potencies beside an inconclusive call are fits to weak or partial responses and may not hold up. A note “side channel” means that the fit belongs to a control or component signal, not to the main read-out.
What follows are molecules tested against Muscleblind-like protein 1 (Homo sapiens) (UniProt Q9NR56) (assay: qHTS Assay for Inhibitors of MBNL1-poly(CUG) RNA binding). Conditions: TR-FRET MBNL1-His/biotin-(CUG)12 binding, 665/545 ratio; activity change, negative = inhibition: at 57.5 µM (top of the series).
How it was run: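 Ratiometric TR-FRET (665 over 545 nm, excitation 340 nm) tracks disruption of MBNL1-His/biotin-(CUG)12 complex after 60 min at room temperature, with compounds at 92 nM to 58 uM final.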
% is scaled to controls: 0 for no effect and ±100 for the full control effect; potency is read from the fitted curve at half-maximal effect; tags tell the direction and shape of the fitted curve or compound fluorescence and quenching.

Chain of UniProt Q9NR56 (Q9NR56 whole entry, looked up): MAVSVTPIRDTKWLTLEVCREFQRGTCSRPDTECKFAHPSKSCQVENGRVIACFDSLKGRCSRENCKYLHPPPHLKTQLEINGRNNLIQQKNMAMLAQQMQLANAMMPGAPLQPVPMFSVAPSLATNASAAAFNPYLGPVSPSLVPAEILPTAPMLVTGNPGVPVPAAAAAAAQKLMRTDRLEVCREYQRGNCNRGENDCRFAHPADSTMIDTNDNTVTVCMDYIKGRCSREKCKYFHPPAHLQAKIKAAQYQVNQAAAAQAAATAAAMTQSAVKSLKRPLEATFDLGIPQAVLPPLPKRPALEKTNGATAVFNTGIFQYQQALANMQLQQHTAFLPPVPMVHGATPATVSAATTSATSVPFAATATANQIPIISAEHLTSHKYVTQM

Structure (SMILES) | Potency | activity change, negative = inhibition
COc1ccc(CC(=O)NC(CC(=O)O)c2cccc([N+](=O)[O-])c2)cc1 (stereo not drawn) | inconclusive: 28.2 µM [quencher, side channel, single point] | 
O=C(NCCN1C(=O)S/C(=C/c2ccccc2)C1=O)C1CCCN1C(=O)c1cccs1 (stereo not drawn) | inconclusive: 15.8 µM [quencher, side channel, partial curve] | 
Cc1nc2sc(C(c3cccs3)N3CCC(C(N)=O)CC3)c(O)n2n1 (stereo not drawn) | inconclusive: 17.8 µM [activator, single point] | 
CCCCNC(=O)CNC(=O)c1nn(-c2ccc(OC)cc2)c(=O)c2ccccc12 | inconclusive: 17.8 µM [quencher, side channel, single point] | 
O=C(CCNC(=O)c1ccccc1)Nc1ccc(F)c(Cl)c1 | inconclusive: 0.316 µM [fluorescent, side channel, partial curve] | 
Cn1c(Cn2cnc([N+](=O)[O-])n2)nnc1SCC(=O)Nc1cccc(Cl)c1 | inconclusive: 0.141 µM [quencher, side channel, full curve, poor fit] | 
N/C(=N\OC(=O)c1ccc([N+](=O)[O-])cc1)c1cccnc1 | inconclusive: 1.41 µM [quencher, side channel, full curve] | 
Cc1cccc(C(=O)NCc2nnc3c4ccccc4c(-c4ccccc4)nn23)c1 | inconclusive: 0.0891 µM [fluorescent, side channel, full curve] | 
O=C(NCc1ccc(F)cc1)C1CCCN1S(=O)(=O)c1cccc2nsnc12 (stereo not drawn) | inconclusive: 14.1 µM [quencher, partial curve] | 
CN(C)CCOC(=O)c1ccc2c(c1)S(=O)(=O)c1ccccc1C2=O | inconclusive: 14.1 µM [quencher, side channel, partial curve] | 
O=C1OCCN1/N=C/c1ccc([N+](=O)[O-])o1 | inconclusive: 4.47 µM [quencher, side channel, full curve] | 
Cc1nc(Nc2cccc(F)c2)c2oc3ccccc3c2n1 | inconclusive: 22.4 µM [fluorescent, side channel, single point] | 
COc1ccc([C@]23Cc4cc(OC)c(OC)cc4C(O2)c2c(cc(C)n(Cc4ccccc4)c2=O)O3)cc1 |  | inactive: 13.9% [at 11.5 µM]
C=CCN1C=C2C(=O)C(C)(OC(=O)CCc3ccccc3)C(=O)C=C2C=C1c1ccc(C#N)cc1 (stereo not drawn) | inconclusive: 20 µM [quencher, side channel, partial curve, poor fit] | 
COc1ccc(NC2=C(Cl)C(=O)N(c3ccccc3)C2=O)c(OC)c1 | inconclusive: 3.98 µM [quencher, side channel, single point] | 
ClC(Br)=C(n1cnc2ccccc21)n1cnc2ccccc21 | inactive | 
CCC(=O)NCCn1c(C)cc2ccccc21 | inconclusive: 35.5 µM [quencher, side channel, single point] | 
Cc1c(NC(=O)c2c(NC(=O)CNC3CC3)sc3c2CCCC3)c(=O)n(-c2ccccc2)n1C | inconclusive: 25.1 µM [fluorescent, side channel, single point] | 
CCOc1ccccc1N1CCN(S(=O)(=O)c2cccc3nsnc23)CC1 | inconclusive: 12.6 µM [quencher, side channel, partial curve] | 
O=C(O)CCC(=O)Nc1ccc(N=Nc2ccccc2)cc1 | inconclusive: 25.1 µM [quencher, single point] | 

Structure (SMILES) | Potency | activity change, negative = inhibition
CCC(C)NC(=O)c1ccccc1NC(=O)C1COc2ccccc2O1 (stereo not drawn) | inconclusive: 7.94 µM [inhibitor, single point] | 
O=C(Nc1ccc([N+](=O)[O-])cn1)c1ccc(Br)o1 | inconclusive: 0.447 µM [quencher, side channel, full curve] | 
Nc1nonc1-n1nnc(C(=O)N/N=C/C=C/c2ccccc2)c1CSC1=NCCS1 | inactive | 
O=C(CN1C(=O)c2ccc([N+](=O)[O-])cc2C1=O)NCc1ccc(C(=O)O)cc1 | inconclusive: 6.31 µM [quencher, side channel, partial curve] | 
CCn1c2ccccc2c2cc(NC(=O)c3cccc(OC)c3OC)ccc21 | inconclusive: 15.8 µM [fluorescent, side channel, partial curve] | 
CCOc1ccc(-n2nc(C(=O)NCCOC)c3ccccc3c2=O)cc1 | inconclusive: 28.2 µM [quencher, side channel, single point] | 
N#CCSc1nnc(-c2cnccn2)n1Cc1ccccc1 | inconclusive: 4.47 µM [quencher, side channel, single point] | 
CCN(CC)c1ccc(/C=C(/C#N)C(=O)NCc2ccccc2)o1 | inconclusive: 15.8 µM [quencher, partial curve] | 
O=C(N/N=C/c1ccc(N2CCOCC2)s1)c1ccccc1Cl | inconclusive: 15.8 µM [quencher, partial curve] | 
CCc1cccc2c(SCC(=O)NCC3CCCO3)nc(-c3ccc(F)cc3)nc12 (stereo not drawn) | inconclusive: 44.7 µM [fluorescent, side channel, partial curve, poor fit] | 
CC(c1nccs1)N(C)c1nc2nonc2nc1NC1CC1 (stereo not drawn) | inactive | 
C[C@H](NC(=O)[C@H](Cc1ccccc1)n1c(=O)[nH]c2ccccc2c1=O)C(=O)N1CCC(C(=O)O)CC1 | inactive | 
Cc1cc(N2C(=O)C(O)=C(C(=O)c3ccco3)C2c2cccc(O)c2)no1 (stereo not drawn) | inconclusive: 25.1 µM [quencher, side channel, partial curve] | 
OC1CCN(c2c3c(nc4cc(-c5cccc(F)c5)nn24)CCCC3)CC1 | inconclusive: 7.08 µM [quencher, side channel, single point] | 
CC(=O)Nc1ccc(NC(=O)c2sc3nc4c(c(-c5ccc(C)cc5)c3c2N)CCC4)cc1 | inconclusive: 6.31 µM [activator, single point] | 
Cc1c(C(=O)Nc2ccc(Cc3ccncc3)cc2)cccc1[N+](=O)[O-] | inconclusive: 39.8 µM [quencher, side channel, single point] | 
COc1ccc(N2C(=S)NC3c4cc(Cl)ccc4OC2(C)C3C(=O)N(C)C)cc1 (stereo not drawn) | inconclusive: 22.4 µM [quencher, side channel, single point] | 
Cc1cccn2c(=O)c(C=C(C#N)C#N)c(N3CCN(c4cccc(Cl)c4)CC3)nc12 | inactive | 
COc1ccc(N=Nc2nc3ccc(Br)cc3n2C)cc1 | inconclusive: 2.24 µM [quencher, side channel, full curve] | 
Cc1cc(F)c(F)c(C(=O)N2CCC(C)CC2)c1Cl | inactive | 

Structure (SMILES) | Potency | activity change, negative = inhibition
CCOC(=O)c1cc2n(c1/N=C/N(C)C)-c1ccccc1C2=O | inconclusive: 12.6 µM [quencher, side channel, partial curve] | 
COc1ccc(S(=O)Cc2ccc(C(=O)NCc3cccc(OC)c3)o2)cc1 (stereo not drawn) | inactive | 
Cc1c(NC(=O)C(C)OC(=O)c2ccc([N+](=O)[O-])s2)c(=O)n(-c2ccccc2)n1C (stereo not drawn) | inconclusive: 14.1 µM [quencher, side channel, partial curve] | 
COCCCNC(=O)c1cccn2c(=O)c3cc4ccccc4cc3nc12 | inconclusive: 2.51 µM [quencher, side channel, full curve, poor fit] | 
CCOC(=O)c1c(NC(=O)Cn2nc(C(F)F)cc2C(F)F)sc(C)c1C | inactive | 
CCSc1ccc(-c2cccc([N+](=O)[O-])c2)nn1 | inconclusive: 2 µM [quencher, side channel, full curve] | 
Fc1cccc(CSc2nnc3ccc(-c4ccncc4)nn23)c1 | inconclusive: 14.1 µM [quencher, side channel, partial curve] | 
O=C(O)/C=C/c1ccc(S(=O)(=O)Nc2ccc3[nH]c(=O)[nH]c3c2)cc1 | inconclusive: 25.1 µM [quencher, side channel, partial curve] | 
O=C1C2=C(c3ccccc31)[N+](=O)C1CCCCC1N2[O-] (stereo not drawn) | inconclusive: 11.2 µM [quencher, side channel, partial curve] | 
O=C(/C=C/c1ccc(OCCCF)cc1)N1CCOCC1 | inconclusive: 15.8 µM [quencher, side channel, partial curve] | 
Cc1ccc(Nc2nc3ccccc3nc2-n2nc(C)cc2C)cc1 | inconclusive: 3.16 µM [quencher, side channel, full curve] | 
COC(=O)CCC(=O)OC1(C)C(=O)C=C2C=C(C3CC3)N(C3CC3)C=C2C1=O (stereo not drawn) | inconclusive: 15.8 µM [quencher, side channel, partial curve] | 
Cc1nn(-c2ccccc2)c(N)c1N=Nc1cccnc1 | inconclusive: 11.2 µM [quencher, side channel, partial curve] | 
C/C(=N\Nc1ccc([N+](=O)[O-])cc1[N+](=O)[O-])C(C)C(C)C (stereo not drawn) | inconclusive: 22.4 µM [quencher, side channel, single point] | 
COc1ccnc(CSC(N)=Nc2ccc(F)cc2)c1 | inactive | 
c1ccc(-c2ccc(-c3ccccn3)s2)nc1 | inconclusive: 12.6 µM [quencher, side channel, partial curve] | 
CC(C)CC(=O)Nc1c2c(nn1-c1ccc([N+](=O)[O-])cc1)CS(=O)(=O)C2 | inconclusive: 7.94 µM [quencher, side channel, full curve] | 
CCC(C)c1ccccc1NC(=O)COC(=O)c1ccc2c(c1)S(=O)(=O)c1ccccc1C2=O (stereo not drawn) | inconclusive: 17.8 µM [quencher, partial curve] | 
